# From the supplement of paper PMC11283458
# Counter-ions that a name gives are not always drawn. The list shows a part of the results. Many values rest on one well or one pass, so single values are uncertain.
# System: Mef2d microexon dual Nano/Firefly luciferase splicing reporter in Neuro-2a cells
# Experiment: B-score of Firefly/Nano luminescence ratio, V1 Mef2d microexon reporter (B-score (plate-normalised)); higher = more Mef2d microexon inclusion
# Conditions: 24 h
# 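Wherever B-score of Nano/Firefly luminescence ratio, V2 Mef2d microexon reporter is given: compounds at 4 µM (PKI library 0.5 µM) on Dox-inducible N2A Flp-In cells with PEST-tagged luciferases, 384-well plates, B-score from per-plate median-polish residual over median absolute residual.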
row,SMILES,B-score
1,CCOC(=O)c1cc(-c2csc(Nc3ccccc3)n2)on1 (4 µM),4.72
2,CC(C)(C)c1ccc(-c2nnc(-c3ccccc3NC(=O)C=CC(=O)O)o2)cc1 (4 µM),4.35
3,Nc1nc(=S)c2ncn([C@@H]3O[C@H](CO)[C@@H](O)[C@H]3O)c2[nH]1 [Thioguanosine] (4 µM),-16.3
4,"Oc1ccc(-c2ccc(-c3cc(Nc4ccc(CNC5CC5)cc4)n[nH]3)cc2)c(O)c1 [TCS 2312 dihydrochloride, TCS-2312] (0.5 µM)",-4.91
5,CC(C)ON([C@@H](C(=O)NO)C(C)C)S(=O)(=O)c1ccc(-c2ccccc2)cc1 (4 µM),13.1
6,CNS(=O)(=O)Nc1nccc(Cc2c(C)c3ccc(Oc4ncccn4)cc3oc2=O)c1F (0.5 µM),5.13
7,C=CCn1c(N)c(C(=O)NN=Cc2cccs2)sc1=S (4 µM),4.38
8,COc1cc(CNc2ccc3c(c2)CCN3C(C)=O)cc(OC)c1OC (4 µM),-8.3
9,Cn1cnc([N+](=O)[O-])c1Sc1ncnc2[nH]cnc12 [Azathioprine] (4 µM),-9.44
10,O=[N+]([O-])c1ccc(N2CCCN(C(=S)Nc3ccc(Cl)cc3Cl)CC2)nc1 (4 µM),-2.91
11,CN(Cc1cnc2nc(N)nc(N)c2n1)c1ccc(C(=O)N[C@@H](CCC(=O)O)C(=O)O)cc1 [Methotrexate] (4 µM),-4.72
12,Cc1ccc(NC(=O)c2coc(Br)c2)nc1 (4 µM),-2.4

# System: Mef2d microexon dual Nano/Firefly luciferase splicing reporter in Neuro-2a cells
# Experiment: B-score of Nano/Firefly luminescence ratio, V2 Mef2d microexon reporter (B-score (plate-normalised)); higher = more Mef2d microexon inclusion
# Conditions: 24 h
row,SMILES,B-score
1,N=c1n(CCN2CCCCC2)c2ccccc2n1CC(=O)c1cccc([N+](=O)[O-])c1 (4 µM),3.09
2,Cc1ccc(Cl)cc1NC(=O)CC(C)CC(=O)O (configuration not stated) (4 µM),0.952
3,CC(=O)OC1(C(=O)/C=C/c2ccccc2)CCCCC1 (4 µM),-2.63
4,"CC[C@@H]1C(=O)N(C)c2cnc(Nc3ccc(C(=O)NC4CCC(N5CCN(CC6CC6)CC5)CC4)cc3OC)nc2N1C(C)C (some centres not stated) [BI-6727, volasertib] (0.5 µM)",-4.82
5,Cc1cc(Nc2cc(C)c(C#N)c(NC(C)CCCC(C)(C)O)n2)n[nH]1 (configuration not stated) [TC-A 2317 hydrochloride] (0.5 µM),4.78
6,CCOC(=O)c1cc(C#N)c(Sc2ccc(Cl)cc2)nc1C(F)(F)F (4 µM),0.216
7,O=C(Cn1nnc(N2CCOCC2)n1)NNC(=S)Nc1ccc(F)cc1F (4 µM),0.471
8,O=[N+]([O-])c1c(Oc2ccc(F)c(F)c2)nc2sccn12 (4 µM),-5.83
9,CON=C1CCCc2c(C(=O)NN=Cc3ccccc3Cl)sc(SC)c21 (4 µM),-10.7
10,Cc1nc(C(N)=NOC(=O)c2c(-c3c(Cl)cccc3Cl)noc2C)cs1 (4 µM),3.97
11,Nc1ncn(C2OC(CO)C(O)C2O)c(=O)n1 (configuration not stated) [Azacytidine-5] (4 µM),-10.9
12,COc1ccc(C=C2CCCc3ccccc3C2=O)cc1 (4 µM),-5.9
13,Cc1nc(C(N)=NOC(=O)c2c(-c3ccccc3Cl)noc2C)cs1 (4 µM),1.63
14,Clc1ccc2nc(-c3ccc4c(c3)OCCO4)cn2c1 (4 µM),-8.16
15,Oc1cccc(-c2nc(N3CCOCC3)c3sccc3n2)c1 [PI3-Kinase a Inhibitor 2] (0.5 µM),-4.52
16,CCN(CC)C(=O)ON=C(N)c1cc(Br)c(OC)c(Br)c1 (4 µM),3.58
17,O=C(Nc1ccc(-n2nc(C(F)(F)F)cc2-c2cccs2)cc1)c1ccccc1 (4 µM),3.56
18,O=C1C2C(c3ccccc3)N3CN(C2c2ccccc2)C(c2ccccc2)C1C3c1ccccc1 (configuration not stated) (4 µM),8.24
19,O=[N+]([O-])c1ccc(Nc2ccc3c(c2)OCCO3)cc1C(F)(F)F (4 µM),6.52
20,COC(OC)c1nc(SCC(=O)Nc2ccc(C(F)(F)F)cc2)ncc1C(=O)O (4 µM),2.82
21,COc1cccc2cc(-c3nc(C4CCC(C(=O)O)CC4)n4ncnc(N)c34)[nH]c12.Cl (configuration not stated) [OSI-027 hydrochloride] (0.5 µM),-3.57
22,COc1cc2c(cc1O)CC[C@@H]1[C@@H]2CC[C@]2(C)[C@@H](O)CC[C@@H]12 [2-Methoxyestradiol] (4 µM),-5.47
23,O=C(O)[C@]1(Cc2cccc(Nc3nccs3)n2)CC[C@@H](Oc2cccc(Cl)c2F)CC1 (0.5 µM),4.69
24,COc1ccc(C2C3CCCC=C3C(C#N)=C(N)C2(C#N)C#N)c(OC)c1 (configuration not stated) (4 µM),-5.8
25,NC(=S)N/N=C/c1ccc(-c2cccc(Cl)c2Cl)o1 (4 µM),15.2
